The text below walks through data of ChEMBL document CHEMBL5052851, “Mettl3 modulators” (2021).

Bounds are passed on as bounds.

The assay addresses N6-adenosine-methyltransferase catalytic subunit (Homo sapiens, UniProt Q86U44). Briefly: Inhibition of METTL3 (unknown origin) using UCUGGACUAAA-biotin and 3H-SAM as substrates preincubated for 5 mins followed by substrate addition incubated for 30 mins by TopCount scintillation counting method.
Sequence of UniProt Q86U44 (Q86U44 whole entry): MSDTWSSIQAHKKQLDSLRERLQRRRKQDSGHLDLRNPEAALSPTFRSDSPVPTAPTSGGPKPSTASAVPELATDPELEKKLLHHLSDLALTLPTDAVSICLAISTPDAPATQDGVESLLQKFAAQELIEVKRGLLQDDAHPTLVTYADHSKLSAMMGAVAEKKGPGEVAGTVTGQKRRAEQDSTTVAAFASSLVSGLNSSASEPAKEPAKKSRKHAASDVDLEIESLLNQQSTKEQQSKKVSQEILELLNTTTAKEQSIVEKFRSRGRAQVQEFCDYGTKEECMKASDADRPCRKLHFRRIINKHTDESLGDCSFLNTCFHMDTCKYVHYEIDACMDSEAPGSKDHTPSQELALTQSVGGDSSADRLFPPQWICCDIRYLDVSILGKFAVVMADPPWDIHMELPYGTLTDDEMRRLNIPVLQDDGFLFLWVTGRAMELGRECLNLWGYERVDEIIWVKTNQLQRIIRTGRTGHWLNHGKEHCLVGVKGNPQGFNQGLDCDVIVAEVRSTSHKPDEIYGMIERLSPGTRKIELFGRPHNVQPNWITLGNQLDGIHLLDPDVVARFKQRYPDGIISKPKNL

As for `Cn1ccc(-c2cn(-c3cncc(COc4ccc5ccc(N6CC(F)(F)C6)nc5c4)c3)c3ncnc(N)c23)n1`, the 50% inhibitory concentration (IC50) (usually the concentration at which inhibition is half-maximal) was less than 10 nM.
As for `Cn1ccc(-c2cn(-c3cncc(COc4ccc5ccc(N6CCC6=O)nc5c4)c3)c3ncnc(N)c23)n1`, the figure is not below 1000 nM; as for `CCc1cc(NCCN(C)C)c2ccc(OCc3cncc(-n4ccc5c(N)ncnc54)n3)cc2n1`, less than 10 nM; as for `CN(Cc1cncc(-n2cc(-c3ccn(C)n3)c3c(N)ncnc32)c1)CC1CC1`, not below 1000 nM.
The value for `Nc1ncnc2c(-c3cncc(COc4ccc5ccc(N6CCC6)nc5c4)c3)c[nH]c12` was less than 10 nM.
Take `COCCN(C)C(=O)c1ccc(OCc2cncc(-n3cc(-c4ccn(C)n4)c4c(N)ncnc43)c2)cc1N`: the IC50 is not below 1000 nM.
The value for `Nc1ncnc2c1c(Cl)cn2-c1cccc(COc2ccc3ccc(N4CCCC4)nc3c2)c1` was not below 1000 nM; that for `CN(C)C(=O)c1ccc(OCc2cncc(-n3cc(-c4ccn(C)n4)c4c(N)ncnc43)c2)cc1N` was not below 1000 nM; that for `Cn1ccc(-c2cn(-c3cncc(COc4ccc5ccc(N6CCCC6=O)nc5c4)c3)c3ncnc(N)c23)n1` was not below 1000 nM.
The value for `Cn1ccc(-c2cn(-c3cncc(CSc4ccc5ccc(N6CCC6)nc5c4)c3)c3ncnc(N)c23)n1` was less than 10 nM.
The value for `CCc1cc(N2CCC2)nc2cc(OCc3cncc(-n4cc(C5CCCO5)c5c(N)ncnc54)c3)cc(F)c12` (stereo unspecified) was not below 1000 nM; that for `Nc1ncnc2c1c([C@@H]1CCCO1)cn2-c1cncc(COc2ccc3ccc(N4CCC4)nc3c2)n1` was less than 10 nM.
Compound `Nc1ncnc2c1c(Cl)cn2-c1nnc(COc2ccc3ccc(N4CCCC4)nc3c2)s1` showed an IC50 not below 1000 nM.
As for `CN(C)CCNC(=O)c1ccc(OCc2cncc(-n3ccc4c(N)ncnc43)c2)cc1N`, the figure is not below 1000 nM; as for `CC(C)c1cc(N)c2ccc(OCc3cncc(-c4c[nH]c5c(N)ncnc45)c3)cc2n1`, less than 10 nM.
`Cn1ccc(-c2cn(-c3cncc(COc4ccc(C(=O)N5CCOCC5)c(N)c4)c3)c3ncnc(N)c23)n1`: the IC50 was not below 1000 nM.
The value for `COc1ccccc1-c1cn(-c2cncc(COc3ccc4ccc(N5CCC5)nc4c3)c2)c2ncnc(N)c12` was not below 1000 nM.
As for `Cn1ccc(-c2cn(-c3cncc(COC(=O)Nc4cccc(Br)n4)c3)c3ncnc(N)c23)n1`, the figure is not below 1000 nM.
The value for `CNc1ccc2ccc(OCc3ncc(-n4cc(Cl)c5c(N)ncnc54)s3)cc2n1` was not below 1000 nM; that for `Cn1ccc(-c2cn(-c3cncc(CNC(=O)Nc4cccc(N5CCC5)n4)c3)c3ncnc(N)c23)n1` was not below 1000 nM.
In turn, `Cn1ccc(-c2cn(-c3cncc(C[S+]([O-])c4ccc5ccc(N6CCC6)nc5c4)c3)c3ncnc(N)c23)n1` (stereo unspecified) returned an IC50 not below 1000 nM.
As for `Cn1ccc(-c2cn(-c3cncc(COC(=O)Nc4cccc(N5CCC5)n4)c3)c3ncnc(N)c23)n1`, the figure is not below 1000 nM.
The value for `Cn1ccc(-c2cn(-c3cncc(COc4ccc(-c5ncco5)c(N)c4)c3)c3ncnc(N)c23)n1` was not below 1000 nM; that for `CN(C)CCNC(=O)c1ccc(OCc2cncc(-n3cc(Br)c4c(N)ncnc43)c2)cc1N` was not below 1000 nM.
As for `CC1COc2ccc(OCc3cncc(-n4cc(-c5ccn(C)n5)c5c(N)ncnc54)c3)cc2N1` (stereo unspecified), the figure is not below 1000 nM; as for `CN(CC1CC1)C(=O)c1ccc(OCc2cncc(-n3cc(-c4ccn(C)n4)c4c(N)ncnc43)c2)cc1N`, not below 1000 nM.
For the compound `Cn1ccc(-c2cn(-c3cncc(CNC(=O)Cc4cccc(N5CCC5)n4)c3)c3ncnc(N)c23)n1`, the IC50 was not below 1000 nM.
As for `CC(C)(C)c1cc(N)c2ccc(OCc3cncc(-n4ccc5c(N)ncnc54)c3)cc2n1`, the figure is less than 10 nM; as for `CCc1cc(N2CCNCC2)c2ccc(OCc3cncc(-n4cc([C@@H]5CCCO5)c5c(N)ncnc54)c3)cc2n1`, less than 10 nM; as for `Nc1cc(OCc2cncc(-n3ccc4c(N)ncnc43)c2)ccc1C(=O)N1CCNCC1`, not below 1000 nM.
As for `CCc1cc(N2CCC2)nc2cc(F)cc(OCc3cncc(-n4cc(C5CCCO5)c5c(N)ncnc54)c3)c12` (stereo unspecified), the figure is not below 1000 nM.
